About 50,000 (12%) of roughly 420,000 compounds were called active. This list was built around the results that the source calls inconclusive (neither active nor inactive); the mix of calls is not that of the screen. Calls follow the shape of the dose curve; as a rule, active = well fitted inhibition curve with a large enough effect; inconclusive = small, poorly fitted or top-dose-only effect; inactive = flat fitted curve, though single readings scatter. No potency is given beside an inconclusive call; the fits are too rough.
Assay: qHTS for Inhibitors of human tyrosyl-DNA phosphodiesterase 1 (TDP1): qHTS in cells in presence of CPT; also: nearly all actives have a fitted effect of over 55% in size
Conditions: chicken DT40 Tdp1-/-;hTDP1 cells + 20 nM CPT, ATP luminescence, 48 h; series mostly up to 46.2 µM
Summary of the method: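 Chicken DT40 Tdp1-/- cells stably complemented with human TDP1 were seeded at 400 cells/well in medium containing 20 nM camptothecin, exposed to pin-transferred compounds, and grown at 37 °C for at least 48 hr. Viability was read as ATP luminescence.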
In the case of COc1ccc(-c2coc3c(C(=O)NCC(C)C)cccc23)c(C)c1, the Potency is reported as inconclusive [inhibitor, single point]. For CCOC(=O)c1c(-c2ccc(OC)cc2)oc2ccc(OCc3ccc(Br)cc3)cc12, the Potency was inconclusive [inhibitor, single point]. With CCOCCn1ccc2c(OCC(=O)Nc3ccccc3F)cccc2c1=O the Potency was inconclusive [inhibitor, single point]. In the case of COc1ccc(Cn2c(=O)c3cccnc3n(CC(=O)Nc3c(C)cc(C)cc3C)c2=O)cc1, the Potency is reported as inconclusive [inhibitor, single point]. With CCOC(=O)C1=C(c2ccccc2)OC(N)=C(C#N)C1c1ccncc1 (stereo not drawn) the Potency was active: 23.1 µM. With CCc1cnc2c(c1SCC(=O)c1ccc(Cl)cc1)c(=O)n(C)c(=O)n2C the Potency was active: 13 µM. For CC(=O)c1ccc(NC(=O)[C@@H]2CCCN2C(=O)OC(C)(C)C)cc1, the Potency was “inactive”. For O=C(Nc1cccc(C(F)(F)F)c1)c1cc(-c2ccc3c(c2)OCCO3)on1, the Potency was inconclusive [inhibitor, single point]. For Cc1ccc(C23CC4CC(CC(C(=O)N5CCOCC5)(C4)C2)C3)cc1, the Potency was inconclusive [inhibitor, single point]. In the case of COc1ccccc1-c1cc(C(=O)Nc2cc(C)nn2-c2ccccc2)no1, the Potency is reported as active: 18.4 µM. In the case of Cc1ccc(C)c(SCC(=O)Nc2cc(S(=O)(=O)N3CCOCC3)ccc2C)c1, the Potency is reported as inconclusive [inhibitor, single point]. In the case of Cn1nc(-c2ccc(Cl)cc2)c2cc(C(=O)NCc3ccco3)sc21, the Potency is reported as inconclusive [inhibitor, single point]. In the case of COc1ccc(OCCSc2nnc3c(Cl)cc(Cl)cn23)cc1, the Potency is reported as inconclusive [inhibitor, single point]. In the case of CC(C)c1c(C(=O)N/N=C/c2ccccc2OCc2c(F)cccc2Cl)nnn1-c1nonc1N, the Potency is reported as active: 5.8 µM. In the case of CC1(C(=O)Nc2cnc3ccccc3c2)CCN1C(=O)c1ccccc1CCc1ccccc1 (stereo not drawn), the Potency is reported as inconclusive [inhibitor, single point]. For COc1ccccc1NC(C)=[N+](C)CCNS(=O)(=O)c1ccc(Cl)cc1, the Potency was inconclusive [inhibitor, single point]. In the case of Cc1ccc(N(CC(=O)Nc2ccc(Br)cc2)S(=O)(=O)c2cccs2)cc1, the Potency is reported as “inactive”. For CCOc1ccccc1OCC(=O)Nc1cccc(S(=O)(=O)N2CCCCCC2)c1, the Potency was inconclusive [inhibitor, single point].
Potency is read from the fitted curve at half-maximal effect; tags tell the direction and shape of the fitted curve.
